Measurements: patent US20220289791A1 (UNIVERSIT CATHOLIQUE DE LOUVAIN, published 2022)

B1: macrocyclic peptide MP4 (peptide)
peptide: ATLKCKLIC-NH2
modifications: linker 5-9 via mXylylene; N-terminus assumed
SMILES: CC[C@H](C)[C@@H]1NC(=O)[C@H](CC(C)C)NC(=O)[C@H](CCCCN)NC(=O)[C@@H](NC(=O)[C@H](CCCCN)NC(=O)[C@H](CC(C)C)NC(=O)[C@@H](NC(=O)[C@H](C)N)[C@@H](C)O)CSCc2cccc(c2)CSC[C@@H](C(N)=O)NC1=O
B2: macrocyclic peptide MP3 (peptide)
peptide: ACLKECLI-NH2
modifications: linker 2-6 via mXylylene; N-terminus assumed
SMILES: CC[C@H](C)[C@H](NC(=O)[C@H](CC(C)C)NC(=O)[C@@H]1CSCc2cccc(c2)CSC[C@H](NC(=O)[C@H](C)N)C(=O)N[C@@H](CC(C)C)C(=O)N[C@@H](CCCCN)C(=O)N[C@@H](CCC(=O)O)C(=O)N1)C(N)=O
B3: macrocyclic peptide MP11 (peptide)
peptide: ATLKEKLI-NH2
modifications: lactam N-5
SMILES: CC[C@H](C)[C@H](NC(=O)[C@H](CC(C)C)NC(=O)[C@H](CCCCN)NC(=O)[C@@H]1CCC(=O)N[C@@H](C)C(=O)N[C@@H]([C@@H](C)O)C(=O)N[C@@H](CC(C)C)C(=O)N[C@@H](CCCCN)C(=O)N1)C(N)=O
B4: macrocyclic peptide MP1 (peptide)
peptide: CTLKCKLI-NH2
modifications: linker 1-5 via mXylylene; N-terminus assumed
SMILES: CC[C@H](C)[C@H](NC(=O)[C@H](CC(C)C)NC(=O)[C@H](CCCCN)NC(=O)[C@@H]1CSCc2cccc(c2)CSC[C@H](N)C(=O)N[C@@H]([C@@H](C)O)C(=O)N[C@@H](CC(C)C)C(=O)N[C@@H](CCCCN)C(=O)N1)C(N)=O
B5: macrocyclic peptide MP2 (peptide)
peptide: ACTLKCKLI-NH2
modifications: linker 2-6 via mXylylene; N-terminus assumed
SMILES: CC[C@H](C)[C@H](NC(=O)[C@H](CC(C)C)NC(=O)[C@H](CCCCN)NC(=O)[C@@H]1CSCc2cccc(c2)CSC[C@H](NC(=O)[C@H](C)N)C(=O)N[C@@H]([C@@H](C)O)C(=O)N[C@@H](CC(C)C)C(=O)N[C@@H](CCCCN)C(=O)N1)C(N)=O
B6: macrocyclic peptide MP10 (peptide)
peptide: Ac-KTLKDKLI-NH2
modifications: lactam 1-5
SMILES: CC[C@H](C)[C@H](NC(=O)[C@H](CC(C)C)NC(=O)[C@H](CCCCN)NC(=O)[C@@H]1CC(=O)NCCCC[C@H](NC(C)=O)C(=O)N[C@@H]([C@@H](C)O)C(=O)N[C@@H](CC(C)C)C(=O)N[C@@H](CCCCN)C(=O)N1)C(N)=O
B7: macrocyclic peptide MP7 (peptide)
peptide: CTLKCKLI-NH2
modifications: linker 1-5 via C6F4(1,4-diyl); N-terminus assumed
SMILES: CC[C@H](C)[C@H](NC(=O)[C@H](CC(C)C)NC(=O)[C@H](CCCCN)NC(=O)[C@@H]1CSc2c(F)c(F)c(c(F)c2F)SC[C@H](N)C(=O)N[C@@H]([C@@H](C)O)C(=O)N[C@@H](CC(C)C)C(=O)N[C@@H](CCCCN)C(=O)N1)C(N)=O
B8: LB8-Aib3 (peptide)
peptide: ATL[Aib]E[Aib]LI-NH2
modifications: N-terminus assumed
SMILES: CC[C@H](C)[C@H](NC(=O)[C@H](CC(C)C)NC(=O)C(C)(C)NC(=O)[C@H](CCC(=O)O)NC(=O)C(C)(C)NC(=O)[C@H](CC(C)C)NC(=O)[C@@H](NC(=O)[C@H](C)N)[C@@H](C)O)C(N)=O
B9: LB8-Aib1 (peptide)
peptide: ATL[Aib]EKLI-NH2
modifications: N-terminus assumed
SMILES: CC[C@H](C)[C@H](NC(=O)[C@H](CC(C)C)NC(=O)[C@H](CCCCN)NC(=O)[C@H](CCC(=O)O)NC(=O)C(C)(C)NC(=O)[C@H](CC(C)C)NC(=O)[C@@H](NC(=O)[C@H](C)N)[C@@H](C)O)C(N)=O
B10: LB8-Aib2 (peptide)
peptide: ATLKE[Aib]LI-NH2
modifications: N-terminus assumed
SMILES: CC[C@H](C)[C@H](NC(=O)[C@H](CC(C)C)NC(=O)C(C)(C)NC(=O)[C@H](CCC(=O)O)NC(=O)[C@H](CCCCN)NC(=O)[C@H](CC(C)C)NC(=O)[C@@H](NC(=O)[C@H](C)N)[C@@H](C)O)C(N)=O

The binders below were run against T1, truncated LDHB (LDHBtr), LDHB subunit lacking the first N-terminal 19 amino acid residues, 6His tagged (human, UniProt P07195 21-334) (assay: MST, 10 to 20 s on time, Red-dye-NHS labelled LDHBtr 100 nM).
T1 construct: Expressed in E. coli from pET-28a with a 6His tag; Labelled with Red-dye-NHS for MST; also called hLDHBtr; rLDHBtr
T1 sequence (P07195 21-334 limits assumed): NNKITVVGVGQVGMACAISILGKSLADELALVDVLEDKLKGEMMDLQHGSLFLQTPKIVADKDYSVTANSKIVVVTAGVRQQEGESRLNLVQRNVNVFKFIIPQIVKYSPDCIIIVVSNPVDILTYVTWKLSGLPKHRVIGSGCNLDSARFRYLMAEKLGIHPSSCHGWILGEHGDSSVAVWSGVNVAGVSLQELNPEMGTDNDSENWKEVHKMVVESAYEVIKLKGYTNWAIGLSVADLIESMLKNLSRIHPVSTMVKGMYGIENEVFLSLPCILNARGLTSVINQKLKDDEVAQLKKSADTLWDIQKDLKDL

Row | Kd | Binder
1 | 398 µM | B1
2 | 787 µM | B2
3 | 7.82 µM | CTLKCK[Ala(cPr)]I-NH2 (linker 1-5 via p‑tetrafluorophenyl) [macrocyclic peptide CT-45]
4 | 465 µM | B3
5 | 64 µM | B4
6 | 9.43 µM | CT[tBuAla]KCKLI-NH2 (linker 1-5 via p‑tetrafluorophenyl) [macrocyclic peptide CT-44]
7 | 25 µM | CTLKCKLI-NH2 (linker 1-5 via o‑benzyl) [macrocyclic peptide MP8]
8 | 67 µM | B5
9 | 142 µM | B6
10 | 1050 µM | ATLKEKLI-NH2 [LB8]

These binders were tested against T1, truncated LDHB (LDHBtr), LDHB subunit … (assay: MST, Red-dye-NHS labelled LDHBtr 100 nM).

Row | Kd | Binder
11 | 605 µM | ATLKEKLIAPVAE-NH2 [LB13]
12 | 270 µM | ATLKEKLIAPVAEEEATVP-NH2 [LB19, LDHB 19 N-terminal amino acid peptide]
13 | 3100 µM | ATLKDQLI-NH2 [LA8]
14 | 1440 µM | ATLKEKLI-NH2 [LB8]
15 | > 10000 µM | ATLKEKAI-NH2 [LB8-A6]
16 | > 10000 µM | ATGKEKLI-NH2 [LB8-G3]

What follows are binders tested against T1, truncated LDHB (LDHBtr), LDHB subunit … (assay: MST, labelled LDHBtr 100 nM, MST on time 10 to 20 s, n=3).

Row | EC50 (read off the curve) | Binder
17 | ~10 µM | B7

Each binder was assayed against T1, truncated LDHB (LDHBtr), LDHB subunit … (assay: NMR WaterLOGSY, peptide 800 µM, LDHBtr 15 µM).

Row | binding result | Binder
18 | binds | B8
19 | binds | B9
20 | binds | ATLKDQLIYNLLKEEQTPQ-NH2 [LA19]
21 | binds | ATLAEALI-NH2 [LB8-A3-A5]
22 | binds | B10

These binders were tested against T1, truncated LDHB (LDHBtr), LDHB subunit … (assay: MST (raw fluorescence), Red-dye-NHS labelled LDHBtr 100 nM).

Row | Kd | Binder
23 | 66 µM | CTLKCKLI-NH2 (linker 1-5 via α,α′‑bisbromoxylene, also called LT018 polypeptide) [LT018]
24 | 477 µM | ATLKCKLIC-NH2 (linker 5-9 via α,α′‑bisbromoxylene) [LT020]
25 | 233 µM | ACLKECLI-NH2 (linker 2-6 via α,α′‑bisbromoxylene) [VS-142-BisAlk]

What follows are binders tested against T1, truncated LDHB (LDHBtr), LDHB subunit … (assay: MST, Red-dye-NHS labelled LDHBtr 100 nM; MST titration, Kd fit (weak, millimolar binding)).

Row | Kd | Binder
26 | 8200 µM | AALKEKLI-NH2 [LB8-A1]

*1 amine or outer side, *2 acyl side, *3 side chain or, on linkers, in order; H or OH if unused. Bridges are numbered along the chain shown (N, C = ends). Primed or numbered codes have the meaning given here. Where no end group is shown, it is not given here. [ ]: non-standard residue; d: D form. α,α′‑bisbromoxylene = α,α′-bisbromoxylene, an alkylating agent that cross-links two Cys; p‑tetrafluorophenyl = Cys-Cys linker made by stapling with hexafluorobenzene; C6F4(1,4-diyl) = Fc1c(F)c([*:2])c(F)c(F)c1[*:1]; mXylylene = c1cc(C[*:1])cc(C[*:2])c1; Ala(cPr) = N[C@@H](CC1CC1)C(=O)O; tBuAla = CC(C)(C)C[C@H](N)C(=O)O; Aib = CC(C)(N)C(=O)O
